PubChem BioAssay AID485281 (National Center for Advancing Translational Sciences (NCATS), 2010)
About 260 (0.074%) of roughly 350,000 compounds were called active. Inconclusive means that the source gave no clear call. Such entries were picked first, then a sample of the others. The call rests on the fitted dose curve; in most records, active means well fitted inhibition curve with a large enough effect; inconclusive means small, poorly fitted or top-dose-only effect; inactive means no such curve, though single readings can be large or run the other way. Potencies beside an inconclusive call are fits to weak or partial responses and may not hold up.

Biological target: Ferritin light chain (Equus caballus) (UniProt P02791)
Test: qHTS Assay for Identification of Novel General Anesthetics; further: nearly all actives have a fitted effect of over 20% in size
Settings: apoferritin/1-aminoanthracene competitive binding, fluorescence; series mostly up to 77.5 µM
In short: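 In PBS, apoferritin at 10 uM is loaded with 1-AMA from a 50% saturated solution. After 10 min of compound exposure at ambient temperature, reduced 535 nm fluorescence indicates probe displacement.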
Potency means the concentration at half of the fitted maximal effect; tags describe the fitted curve by direction and shape.

Sequence of UniProt P02791 (P02791 whole entry, looked up): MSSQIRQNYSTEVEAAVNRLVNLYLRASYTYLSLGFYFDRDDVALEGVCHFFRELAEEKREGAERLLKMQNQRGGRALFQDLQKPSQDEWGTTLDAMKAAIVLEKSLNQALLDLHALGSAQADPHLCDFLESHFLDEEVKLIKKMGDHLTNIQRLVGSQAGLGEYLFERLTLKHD

Q: Which Potency does the source give for `CCN(CC)S(=O)(=O)c1cccc(NC(=O)C(=O)c2c(-c3ccccc3)cc3ccccn23)c1` here?
A: inconclusive: 2.51 µM [inhibitor, full curve, poor fit]

Q: Which Potency does the source give for `COC(=O)c1cccc(C(=O)Oc2cccc(Br)c2)n1` here?
A: inconclusive: 39.8 µM [inhibitor, single point]

Q: For `CC1(C)CC2CC(C)(CN2C(=S)Nc2ccccc2F)C1` (centres undefined), which Potency is on record?
A: inconclusive: 35.5 µM [inhibitor, single point]

Q: Which Potency does the source give for `CC1(C)SC(=S)N(NC(=O)Nc2ccccc2)C1N(O)C(=O)Nc1ccccc1` (centres undefined) here?
A: inconclusive: 17.8 µM [inhibitor, partial curve]

Q: Which Potency does the source give for `CCCCN(C(=O)CCC(=O)Nc1cc(C)on1)C(C(=O)NC(C)(C)C)c1ccccc1Cl` (centres undefined) here?
A: inactive

Q: With `Fc1ccccc1COc1ccc(/C=N/n2cnnc2)cc1` as the compound, how does the Potency read?
A: inconclusive: 28.2 µM [inhibitor, partial curve]

Q: Which Potency does the source give for `COc1cccc(C(=O)Nc2c(C)n[nH]c2C)c1` here?
A: inactive

Q: Which Potency does the source give for `CC1CCc2c(sc(NC(=O)c3ccc(Cn4cc([N+](=O)[O-])cn4)o3)c2C#N)C1` (centres undefined) here?
A: inconclusive: 25.1 µM [inhibitor, partial curve]

Q: `COC(=O)c1ccc(N2CCC(C)CC2)c(N)c1` was tested. Which Potency did it give?
A: inconclusive: 39.8 µM [inhibitor, single point]

Q: `O=C(NCCc1ccc(Cl)cc1)C(=O)NCC(c1ccc2c(c1)OCO2)N1CCOCC1` (centres undefined) was tested. Which Potency did it give?
A: inactive

Q: For `O=C(Cc1ccc(F)cc1)Nc1ccc(F)c([N+](=O)[O-])c1`, which Potency is on record?
A: inconclusive: 25.1 µM [inhibitor, partial curve]

Q: For `Cc1ccc(Cl)cc1N1CCN(S(=O)(=O)c2ccc3[nH]c(=O)c(=O)[nH]c3c2)CC1`, which Potency is on record?
A: inconclusive: 15.8 µM [inhibitor, partial curve]

Q: How did the Potency turn out when `Cc1ncc(C[n+]2csc(CCO)c2C)c(N)n1` was run?
A: inactive

Q: With `CCCc1ccc(C2=Nn3c(nnc3C(C)C)SC2)cc1` as the compound, how does the Potency read?
A: inactive

Q: `O=C(c1cccc(F)c1)N1CCCc2ccccc21` was tested. Which Potency did it give?
A: inconclusive: 35.5 µM [inhibitor, partial curve]

Q: Which Potency does the source give for `CC(=O)OCC(=O)[C@@]1(O)CC[C@H]2[C@@H]3CCC4=CC(=O)CC[C@]4(C)[C@H]3[C@@H](O)C[C@@]21C` here?
A: inactive

Q: Which Potency does the source give for `COc1cccc(NC(=O)C2C3CC4OC(=O)C2C4C3)c1` (centres undefined) here?
A: inconclusive: 44.7 µM [inhibitor, single point]

Q: For `CC(/C=C/c1ccccc1)=N/NC(=O)CNC(=O)c1ccccc1F`, which Potency is on record?
A: inconclusive: 10 µM [inhibitor, full curve]

Q: Which Potency does the source give for `Cc1cc(C)nc(SCc2ccccc2C#N)n1` here?
A: inconclusive: 56.2 µM [inhibitor, single point]
